Hit rate of the full screen: of about 220,000 compounds, about 2,300 (1%) were called active. Inconclusive means that the source gave no clear call. Such entries were picked first, then a sample of the others. Calls come from the whole dose curve; as a rule, active = well fitted inhibition curve with a large enough effect; inconclusive = small, poorly fitted or top-dose-only effect, or effect the other way; inactive = no such curve, though single readings can be large or run the other way. Potencies of inconclusive entries are left out as doubtful fits.
What follows are molecules tested against Neuropeptide S receptor (Homo sapiens) (UniProt Q6W5P4) (assay: qHTS Assay for Antagonists of the Neuropeptide S Receptor: cAMP Signal Transduction). Conditions: CHO-NPSR cells, cAMP TR-FRET, antagonist mode; activity change, negative = inhibition: at 38.3 µM (top of the series) unless noted.
UniProt Q6W5P4, sequence (Q6W5P4 whole entry, looked up): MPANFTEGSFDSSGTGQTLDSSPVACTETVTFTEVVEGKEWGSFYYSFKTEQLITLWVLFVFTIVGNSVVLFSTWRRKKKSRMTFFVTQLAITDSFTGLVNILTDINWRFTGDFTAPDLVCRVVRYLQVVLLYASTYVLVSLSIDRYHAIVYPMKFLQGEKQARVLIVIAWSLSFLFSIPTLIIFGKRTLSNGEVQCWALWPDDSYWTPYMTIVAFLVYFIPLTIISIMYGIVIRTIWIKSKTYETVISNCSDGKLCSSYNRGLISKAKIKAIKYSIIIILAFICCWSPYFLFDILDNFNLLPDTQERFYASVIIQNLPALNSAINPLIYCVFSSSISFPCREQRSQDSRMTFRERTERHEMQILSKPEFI
Excerpt: NIH Chemical Genomics Center [NCGC] NIH Molecular Libraries Probe Production centers Network [MLPCN] MLPCN Grant: X01-DA026210-01 Assay Submitter (PI): Heilig, Markus Alexander NCGC Assay Overview: Neuropeptide S receptor (NPSR), previously known as GPR154, is a recently de-orphanized G protein coupled receptor. Its endogenous ligand is the 20 amino acids peptide Neuropeptide S (NPS). […] NPS and its receptor are found in various tissues. Specifically they are highly expressed in brain areas that have been implicated in modulation of arousal, stress and anxiety. Central administration of NPS in mice produces an unusual profile of activity by inducing wakefulness and arousal, while at the same time suppressing anxiety. Therefore, NPSR may represent a novel drug target for the treatment of sleep and anxiety disorders. To identify NPSR antagonists, we developed a cell-based cAMP assay. NPS can stimulate the production of cAMP in Chinese hamster ovary cells stably expressing NPS receptor. This change in intracellular cAMP level can be detected by a homogeneous LANCE cAMP assay based on the TR-FRET (time resolved fluorescence resonance energy transfer) between a europium-labeled cAMP tracer complex and a cAMP-specific antibody labeled with Alexa Fluor 647. The europium-labeled cAMP tracer complex is formed by the tight interaction between Biotin-cAMP (b-cAMP) and streptavidin labeled with Europium-W8044 chelate (Eu-SA). Light pulse at 320 nm excites the europium of the cAMP tracer and the energy emitted is transferred to the Alexa molecule bound to the cAMP antibody, generating a TR-FRET signal at 665 nm. Residual energy from the europium will produce a light at 620 nm. The native unlabeled cAMP from cell lysates competes with the europium-cAMP tracer for antibody binding and reversely reduces the emission signal of Alexa by interrupting FRET between the two labeled molecules. Both emission signals from the FRET donor (620 nm) and the acceptor (665 nm) can be detected by a plate reader in the TRF mode. Expression of result in fluorescence ratio (665 nm/620 nm) helps to normalize differences due to cell density and reagent dispensing. This assay was successfully optimized to a 1536-well plate format.
NCGC Assay Protocol Summary: A Chinese hamster ovary (CHO) cell line stably expressing the NPS receptor (CHO-NPSR) was obtained from Dr. Heilig lab at NIAAA and maintained in F-12 Kaighn's media (Invitrogen, Carlsbad, CA, 21127) supplemented with 10 % FBS, 100 units/ml penicillin, 100 ug/ml streptomycin and 250 ug/ml geneticin at 37C, 5% CO2 in a humidified atmosphere. Before the assay, aliquots of cells were frozen and stored at -135C. The assay was performed in 1536-well format. Data are reported for both the ratio of the two emission wavelengths, and also for the component 'donor' channel, Em2=620. Data were normalized to the controls for basal activity (DMSO only) and 100% inhibition (No NPS control). IC50 values were determined from concentration-response data modeled with the standard Hill equation. NPS 1536-well assay protocol: (1) Fresh or frozen CHO-NPSR cells were suspended in F-12 Kaighn's media supplemented with 10 % FBS, 100 units/ml penicillin and 100 ug/ml streptomycin. Cells were plated at 4 ul/well (1200 cells) to white, tissue culture treated 1536-well plates, and then cultured at 37C, 5 % CO2 for 16 to 30 hours. (2) Add 23 nl/well of compound in DMSO solution. The final titration for each compound was between 0.6 nM and 46 uM. (3) Add 1 ul of stimulation reagent (1X HBSS buffer, 5 mM HEPES, 0.1% BSA, 500 uM RO-201724 (Sigma-Aldrich, B8279), 1.5% Alexa 647-labeled anti-cAMP antibody (from Perkin Elmer), 100 nM NPS) (4) Incubation at 37C, 5 % CO2 for 60 min. (5) Add 1 ul/well detection reagent. Detection reagent was prepared by adding biotin labeled cAMP (4%), streptavidin labeled with Europium-W8044 chelate (1.33%) and TritonX-100 (1%) to detection buffer. […]
% is set by controls: 0 for no effect and ±100 for the full control effect; potency is the fitted concentration of half-maximal effect; tags give direction and shape of the fitted curve.
Note: nearly all actives have a fitted effect of over 50% in size.

SMILES	Potency	activity change, negative = inhibition
CC1C/C(=N\NC(=S)NC(C)C)CC(C)(C)C1 (stereo not drawn)	inconclusive [inhibitor, single point]	
CS(=O)(=O)N(CC(=O)Nc1c(F)cccc1F)c1ccc(C23CC4CC(CC(C4)C2)C3)cc1	inconclusive [inhibitor, single point]	
COc1cc(/C=N/NC(=Nc2ccc(C)cc2)c2nc3ccccc3s2)ccc1O	active: 10 µM	
CSc1nc(N)nc(SCC(=O)C23CC4CC(CC(C4)C2)C3)c1C#N	inconclusive [inhibitor, partial curve]	
CCCCN(C)C(=O)Cn1c(=O)oc2cc(S(=O)(=O)N3CC(C)CC(C)C3)ccc21 (stereo not drawn)	inconclusive [inhibitor, single point]	
COc1ccc(-c2noc(C3CCCN(S(=O)(=O)c4cccc(Cl)c4C)C3)n2)cc1OC (stereo not drawn)	inconclusive [inhibitor, partial curve, poor fit]	
O=C(CN(Cc1ccc(Cl)c(Cl)c1)S(=O)(=O)c1ccccc1)N/N=C\c1ccc2c(c1)OCO2	inconclusive [inhibitor, single point]	
O=C(Nc1ccc(-c2nc3ncccc3o2)cc1)c1ccc(Br)o1	inconclusive [inhibitor, single point]	
CCOC(=O)/C(=C/C=C1\Sc2ccccc2N1CC)C(C)=O		inactive: -25.5%
Cc1ccc(-n2nnnc2CCl)cc1	inconclusive [activator, single point]	
C=CCNc1sc(C(=O)c2ccccc2)c(N)c1-c1nc2ccccc2s1	inconclusive [inhibitor, partial curve]	
CCOc1ccc(S(=O)(=O)NCCC2=CCCCC2)c2ccccc12	inconclusive [inhibitor, single point]	
Cc1nc(C2CCC3C4CCC5=CC(=O)CC[C@]5(C)C4CC[C@]23C)cs1 (stereo partly drawn)	inconclusive [inhibitor, single point]	
O=C(Cc1coc(-c2ccc(F)cc2)n1)NC1CCCCC1		inactive: -23% [at 46.1 µM]
Cc1cc(NC(=O)c2c(F)cccc2F)n(-c2nc3ccccc3[nH]2)n1	inconclusive [inhibitor, single point]	
O=C1NC(=S)S/C1=C\c1ccc(SCc2ccccc2)o1		inactive: -21.7%
NC(=O)C1(N2CCCCC2)CCN(CC(=O)Nc2ccccc2Sc2ccccc2)CC1	inconclusive [inhibitor, single point]	
Cc1ccc(S(=O)(=O)N(C)c2ccc3ccccc3c2)cc1	inconclusive [inhibitor, single point]	
C=C(Cl)COc1ccc2c(CCC)cc(=O)oc2c1	inconclusive [inhibitor, single point]	
CC1CCCCC1NC(=O)/C(C#N)=C/c1ccc(OCC(N)=O)cc1 (stereo not drawn)	inconclusive [inhibitor, single point]	
O=C(CCCSc1nnc(SCCCC(=O)c2ccc(F)cc2)s1)c1ccc(F)cc1	inconclusive [inhibitor, partial curve]	
Cc1ccc(C)c2c1[nH]c1ccccc12		inactive: 9.42% [at 46.1 µM]

SMILES	Potency	activity change, negative = inhibition
O=S(=O)(c1ccc2oc3ccccc3c2c1)N1CCOCC1		inactive: -11.9% [at 46.1 µM]
Cc1cccc(N2CCN(C(=O)C(NS(=O)(=O)c3cccs3)c3ccccc3)CC2)c1C (stereo not drawn)	inconclusive [inhibitor, full curve, poor fit]	
Cc1cc(C)c2nc(N3CCCC(C(=O)N4CCN(c5ncccn5)CC4)C3)sc2c1 (stereo not drawn)	inconclusive [inhibitor, single point]	
CCOC(=O)c1sc2nc(CC(=O)OC)nc(N3CCN(c4ccc(OC)cc4)CC3)c2c1C	active: 31.6 µM	
COc1cc(C(=O)N/N=C/c2ccsc2C)cc(OC)c1OC	inconclusive [activator, single point]	
CC1CCCN(C(=O)CSc2cnc3ccccc3n2)C1 (stereo not drawn)	inconclusive [activator, partial curve]	
CCOC(=O)c1cc(C(=O)OCC)cc(-n2cc(O)c(C(=O)OCC)n2)c1	inconclusive [inhibitor, single point]	
Cc1cc(C)nc(NC(=O)c2cc([N+](=O)[O-])cc([N+](=O)[O-])c2)n1		inactive: 9.82%
CC(=O)c1cccc(NC(=O)COc2cc3oc(=O)c(CC(C)O)c(C)c3cc2Cl)c1 (stereo not drawn)	inconclusive [inhibitor, partial curve, poor fit]	
COc1ccc(-c2oc3ncn(CCN4CCOCC4)c(=N)c3c2-c2ccc(OC)cc2)cc1	inconclusive [inhibitor, partial curve, poor fit]	
CCCCS(=O)(=O)/C=C\C=C/S(=O)(=O)CCCC	active: 5.01 µM	
CCn1c2ccccc2c2cc(NC(=O)CSc3nnc(-c4ccc(OC)cc4)n3N)ccc21	inconclusive [inhibitor, single point]	
Cn1cccc1/C=N/NC(=O)CSc1nc2ccccc2n1C		inactive: 0.363%
Cn1c(=O)c2c(nc(N3CCN(Cc4ccccc4)CC3)n2CCCc2ccccc2)n(C)c1=O	inconclusive [inhibitor, partial curve]	
CCCCCCCC(=O)N/N=C/c1ccc(Br)cc1	inconclusive [inhibitor, single point]	
O=[N+]([O-])c1ccc(N=Nc2ccc(O)cc2O)cc1	active: 10 µM	
C[n+]1cc(C(=O)N2CCCCC2)ccc1/C=C/c1c[nH]c2ccccc12	inconclusive [activator, partial curve]	
CCCN1C(=O)/C(=C/c2ccc(C)s2)NC1=S	inconclusive [inhibitor, single point]	
O=C1C2C3C=CC(C3)C2C(=O)N1c1nc2ccccc2s1 (stereo not drawn)	inconclusive [activator, single point]	
Cc1ccc(S(=O)(=O)Oc2ccccc2/C=N/NC(N)=S)cc1		inactive: -2.62% [at 46.1 µM]
Cc1ccccc1/C(N)=N/OC(=O)N1c2ccccc2Sc2ccccc21	inconclusive [inhibitor, single point]	
